This test addresses purified recombinant His6-RACK1 (human, UniProt P63244). The experiment in a line: pull-down; StrepII-tagged protein immobilised from cleared lysate on StrepTactin Sepharose and washed; 500 pmol of purified RACK1 added; 50 mM HEPES pH 8.0, 500 mM NaCl, 0.03% Tween-20; eluted with 50 mM biotin; Coomassie staining. The note with it: both partners purified.

These results are taken from paper doi:10.1101/2024.11.01.621267 (bioRxiv, 2024).

B1: recombinant FL-LARP4-Strep-tagII (natural protein)
chain: not shown
notes: also called LARP4-WT; pLIB-LARP4; source: Sf21 insect cells (baculovirus), cleared lysate immobilised on StrepTactin resin and washed; not shown: StrepII, C-terminal, kept
As to B1, the binding result is on record as “binds”.
